One assay has as its target T1, mouse EFNA4 (Mus musculus, UniProt O08542).
T1 construct: His
T1 sequence (O08542 26-175): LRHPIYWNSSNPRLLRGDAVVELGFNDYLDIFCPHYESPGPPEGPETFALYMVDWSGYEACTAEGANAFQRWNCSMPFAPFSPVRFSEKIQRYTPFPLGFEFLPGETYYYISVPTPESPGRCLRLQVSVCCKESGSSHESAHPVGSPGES
Put plainly: Affinity / binding to mouse antigen. To be noted: separate studies. Here is the method: As described in International Publication No. WO2012/118547, binding characteristics of E15, E22 and E47 antibodies of the present invention are shown in Table 7.
The binding constants of huE22 for human and cynomolgus monkey EFNA4 proteins were determined by surface plasmon resonance (SPR) using BIAcore 2000 (GE Healthcare) using recombinant EFNA4 extracellular domain that was fused to a histidine tag to facilitate purification. The results indicated high affinity of huE22 for both human and cynomolgus monkey EFNA4, see Table 12. The cynomolgus monkey EFNA4 protein sequence is highly homologous to human EFNA4 protein sequence, with 98% identity overall and 98% identity in the extracellular domain. […] The lack of huE22 binding to rat or mouse EFNA4 is likely explained by a non-conserved residue in the rat and mouse EFNA4 sequences within the defined huE22 epitope.

In the next assay the target is T2, Ephrin-A4 (EFNA4) (Homo sapiens, UniProt P52798).
T2 construct: purchased R&D
T2 sequence (P52798 26-170): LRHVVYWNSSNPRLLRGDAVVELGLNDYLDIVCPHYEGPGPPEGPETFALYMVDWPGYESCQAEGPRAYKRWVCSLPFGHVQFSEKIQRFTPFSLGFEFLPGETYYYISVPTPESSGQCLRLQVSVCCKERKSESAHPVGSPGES
Put plainly: Direct ELISA binding specificity, Ephrin-A4. The conditions noted are these: biotin-labeled antibody. As for the experimental part: Further properties were determined using ELISA to analyze the binding specificity of anti-EFNA4 antibodies huE22 and huE47 to Ephrin-A4 (EFNA4) along with homologous family members Ephrin-A1 (EFNA1) and Ephrin-A3 (EFNA3). Antibody binding was determined by direct ELISA with Ephrin-A1-His, Ephrin-A3-huFc, Ephrin-A4-huFc and Ephrin-A5-huFc (all from R&D) coated on BioOne Microlon (Greiner) plates in PBS overnight at 4° C. Biotin-labeled huE22 and huE47 were incubated on the plate for 2.5 hours at room temperature and Streptavidin HRP was used to develop signal from biotin labeled antibody in the absence of interfering human IgG signal.

In assay [1] the test system is Ovarian-45 (OV45) ovarian cancer PDX. Description: In vivo efficacy, OV45 ovarian cancer PDX. On the set-up: species or system NOD/SCID mice (human tumor PDX). Here is the method: Regressions were also achieved at the 0.09 mg/kg dose level, with tumor regrowth in some animals after 50 days. The 0.036 dose level delayed tumor growth for ˜25 days.

From patent US9872922B2, “Anti-EFNA4 antibody-drug conjugates” (PFIZER, INC., priority 2013, dated 2018) come the findings set out here.

B1: huE22 (antibody)
heavy: QVQLVQSGAEVKKPGASVKVSCKASGYTFTGYYIHWVRQAPGQGLEWMGWIYPGNFNTKYNERFKGRVTMTTDTSTSTAYMELRSLRSDDTAVYYCAREDGSPYYAMDYWGQGTSVTVSS[human IgG1 constant region omitted here]
VL: DIVMTQTPLSLSVTPGQPASISCRSSQSLVHSNGNTFLYWYLQKPGQSPQLLIYRVSNRFSGVPDRFSGSGSGTDFTLKISRVEAEDVGVYYCFQATHVPWTFGGGTKVEIK
As to B1, in the assay with mouse EFNA4, the “binding to mouse antigen” value was “no binding to mouse antigen was detected”. Also, in the assay with Ephrin-A4 (EFNA4), the “binding to Ephrin-A4 (EFNA4)” value is recorded as “binds to EFNA4”.

B2: huE22-AcBut-CM: huE22 conjugated via lysine residues to AcBut-N-acetyl-γ-calicheamicin dimethyl hydrazide (AcBut-CM) (conjugate)
heavy: QVQLVQSGAEVKKPGASVKVSCKASGYTFTGYYIHWVRQAPGQGLEWMGWIYPGNFNTKYNERFKGRVTMTTDTSTSTAYMELRSLRSDDTAVYYCAREDGSPYYAMDYWGQGTSVTVSS[human IgG1 constant region omitted here]
light: DIVMTQTPLSLSVTPGQPASISCRSSQSLVHSNGNTFLYWYLQKPGQSPQLLIYRVSNRFSGVPDRFSGSGSGTDFTLKISRVEAEDVGVYYCFQATHVPWTFGGGTKVEIKRTVAAPSVFIFPPSDEQLKSGTASVVCLLNNFYPREAKVQWKVDNALQSGNSQESVTEQDSKDSTYSLSSTLTLSKADYEKHKVYACEVTHQGLSSPVTKSFNRGEC
For the molecule B2, the “Regression (TTP, Days) or % TGI” value in assay [1] (0.018 mg/kg, OV45 PDX) is “No activity”. The “regressions, tumor regrowth in some animals after” value in assay [1] (0.09 mg/kg) was found to be 50 days. In addition, the mean tumor volume in assay [1] (0.09 mg/kg, Day 60) is recorded as 118 ± 99; in assay [1] (0.09 mg/kg, Day 0), 145 ± 15; in assay [1] (0.09 mg/kg, Day 3) it was 240 ± 41; in assay [1] (0.09 mg/kg, Day 8), 147 ± 23; in assay [1] (0.09 mg/kg, Day 21), 15 ± 1; in assay [1] (0.09 mg/kg, Day 33), 0 ± 0. For the same molecule, the mean tumor volume in assay [1] (0.09 mg/kg, Day 39) was 0 ± 0; in assay [1] (0.09 mg/kg, Day 46), 0 ± 0; in assay [1] (0.09 mg/kg, Day 53) it was 30 ± 30; in assay [1] (0.09 mg/kg, Day 67), 256 ± 165; in assay [1] (0.09 mg/kg, Day 74) it was 423 ± 257; in assay [1] (0.09 mg/kg, Day 81), 443 ± 252. The mean tumor volume in assay [1] (0.09 mg/kg, Day 88) came out at 743 ± 256; in assay [1] (0.09 mg/kg, Day 96) it was 1576 ± 208; in assay [1] (0.27 mg/kg, Day 60), 0 ± 0; in assay [1] (0.27 mg/kg, Day 109), 0 ± 0; in assay [1] (0.27 mg/kg, Day 0) it was 153 ± 20; in assay [1] (0.27 mg/kg, Day 3), 177 ± 39. Moreover, the mean tumor volume in assay [1] (0.27 mg/kg, Day 8) is 35 ± 5; in assay [1] (0.27 mg/kg, Day 21), 0 ± 0; in assay [1] (0.27 mg/kg, Day 33) it was 0 ± 0; in assay [1] (0.27 mg/kg, Day 39), 0 ± 0; in assay [1] (0.27 mg/kg, Day 46), 0 ± 0; in assay [1] (0.27 mg/kg, Day 53) it was 0 ± 0. Moreover, the mean tumor volume in assay [1] (0.27 mg/kg, Day 67) came out at 0 ± 0; in assay [1] (0.27 mg/kg, Day 74) it was 0 ± 0; in assay [1] (0.27 mg/kg, Day 81) it was 0 ± 0; in assay [1] (0.27 mg/kg, Day 88), 0 ± 0; in assay [1] (0.27 mg/kg, Day 96), 0 ± 0; in assay [1] (0.27 mg/kg, Day 102), 0 ± 0. Moreover, the mean tumor volume was determined as 0 ± 0 in assay [1] (0.27 mg/kg, Day 116); 0 ± 0 in assay [1] (0.27 mg/kg, Day 123); 0 ± 0 in assay [1] (0.27 mg/kg, Day 131); 0 ± 0 in assay [1] (0.27 mg/kg, Day 137); 0 ± 0 in assay [1] (0.27 mg/kg, Day 141); 0 ± 0 in assay [1] (0.27 mg/kg, Day 158). In assay [1] (0.27 mg/kg, Day 166), this molecule displayed a mean tumor volume of 0 ± 0. In addition, the “Regression (TTP, Days)” value is “Regression (60) Days” in assay [1] (0.09 mg/kg, OV45 PDX) and “Regression (200) Days” in assay [1] (0.27 mg/kg, OV45 PDX). The same molecule had a tumor growth delay in assay [1] (0.036 dose level) of around 25 days.
